# Data reported in PMC9574860, “Chemical Toolkit for PARK7: Potent, Selective, and High-Throughput” (Journal of Medicinal Chemistry, 2022).
# In all, about 7,900 compounds went through this assay and about 400 (5.1%) showed an effect of 50% or more. This is one part of the list.
# Target: Parkinson's disease protein 7 (PARK7/DJ1) (human, UniProt Q99497)
# Experiment: primary screen, percent inhibition; read as competition with a fluorescent probe by fluorescence polarization; higher = more effect of the substance
# Settings: 100 µM
# Procedure, shortened: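 Covalent fragments at 100 μM final were incubated 2 h with 0.2 μM PARK7, then 20 nM probe JYQ-107 added for a further 2 h. Fluorescence polarization read at 480/520 nm; relative FP loss versus reference controls gave remaining enzyme activity.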
# Parkinson's disease protein 7 (PARK7/DJ1), sequence (Q99497 whole entry, looked up): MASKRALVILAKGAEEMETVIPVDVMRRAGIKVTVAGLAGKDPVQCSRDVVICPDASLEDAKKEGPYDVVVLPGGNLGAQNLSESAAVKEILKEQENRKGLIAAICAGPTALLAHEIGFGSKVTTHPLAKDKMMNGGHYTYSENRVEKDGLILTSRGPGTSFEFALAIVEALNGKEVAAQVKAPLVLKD
row,Structure (SMILES),Inhibition % [%]
1,CC1Cc2ccccc2N1C(=O)CCN1CCSC1=O (stereo not drawn),4.3
2,CN1CC(Nc2ccc(C#N)nc2)CCC1=O (stereo not drawn),20.9
3,C=CC(=O)NC(Cc1ccccc1)c1ncco1 (stereo not drawn),11.9
4,N#Cc1coc(C(F)(F)F)n1,5.35
5,C=CC(=O)Nc1ccccc1N1CCNC(=O)C1,10.7
6,Cc1ccc(C=CC(=O)N2CCCCC2C(=O)O)o1 (stereo not drawn),13.8
7,O=S(=O)(F)CCCS(=O)(=O)Nc1ccc(F)cn1,77.2
8,C=CC(=O)NCCC1CC1(F)F (stereo not drawn),4.88
9,C=CC(=O)NCc1cccnc1N1CCOCC1,4.99
10,CC(C)C(NC(=O)CCl)c1ccc(F)cc1 (stereo not drawn),6.09
11,C=CC(=O)N1CCn2c(nnc2C(C)C)C1,13.2
12,O=C(C=Cc1cccnc1)N1CCOc2ccccc21,4.17
13,CCOc1ccc(S(=O)(=O)n2ccnc2C)cc1,0.397
14,OB(O)C1CCN(Cc2cc3c(cn2)OCO3)C1 (stereo not drawn),8.89
15,COc1cccc(OS(=O)(=O)c2ccc(Cl)nc2)c1,3.42
16,O=C(O)C1CCN(C(=O)C=Cc2cccnc2)CC1,2.49
17,N#CC(=Cc1ccc(CSC(F)F)o1)C(N)=O,16.4
18,COC(=O)CC1(CS(=O)(=O)F)CC1,8.14
19,O=C(CCl)N1CCc2sccc2C1c1cccs1 (stereo not drawn),9.95
20,CC1(C)OB(c2ccccc2C(F)F)OC1(C)C,10
21,c1ccc2c(OCC3CO3)cccc2c1 (stereo not drawn),-2.98

row,Structure (SMILES),Inhibition % [%]
1,O=C1NC2(CCCCCCC2)C(=O)N1CCS(=O)(=O)F,33.3
2,CC(C)NC(=O)C(C#N)=Cc1ccc(O)nc1,11.6
3,O=C(CCl)Nc1cc(F)ccc1F,18.1
4,CC(NC(=O)Cn1cnc(C#N)n1)c1ccc(F)cc1F (stereo not drawn),1.26
5,O=C(c1cccnc1S)N1CCCC2(C1)OCCO2,0.421
6,C=CC(=O)N1CCC(n2ncc3ccccc32)C1 (stereo not drawn),5.41
7,Cc1cc(C(=O)CCl)c(C)n1Cc1ccco1,54.9
8,CC1(C)OB(c2c(F)cc(OCc3ccccc3)cc2F)OC1(C)C,2.29
9,Cc1cc(OCc2cccc(Cl)c2)ccc1B(O)O,1.29
10,O=C(Cc1ccc(S(=O)(=O)F)cc1)NC1CCCC1,2.81
11,CNC(=O)Nc1ccc(B2OC(C)(C)C(C)(C)O2)cc1,1.79
12,CCCCc1nnc(NC(=O)CCl)s1,5.92
13,COc1cccc2sc(NC(=O)CCl)nc12.Cl,17.5
14,CC1(C)OB(c2ccc(OC3CC3)cc2)OC1(C)C,4.09
15,Cc1cc(C(=O)CCl)ccc1F,24.6
16,Cc1csc(C(C#N)=Cc2ccc3c(c2)OCCO3)n1,6.03
17,CC1CCCN(Cc2ccc(CNC(=O)CCl)cc2)C1.Cl (stereo not drawn),13.2
18,C=CC(=O)NC1COc2cc(Cl)ccc2C1 (stereo not drawn),6.51
19,O=C(Nc1ccc(C2CC2)nn1)N[C@@H]1COC(=O)C1,18.2
20,N#Cc1nc2ccccc2o1,4.9
21,CCCn1c(N)c(C(=O)CCl)c(=O)[nH]c1=O,3.15

row,Structure (SMILES),Inhibition % [%]
1,C=CC(=O)Nc1cccc(C(F)(F)F)c1,9.31
2,C=CC(=O)N1CCC(c2csc(C)c2)C1 (stereo not drawn),8.44
3,CN(Cc1ccc(F)cc1Cl)c1nccnc1C#N,6.11
4,O=C(CCl)Nc1ccc2c(c1)oc1ccccc12,62.9
5,CC(=O)c1ccc(NC(=O)CCl)cc1,45.4
6,CCc1noc(CC)c1CNC(=O)c1cccnc1S,15.1
7,O=C(CCCl)Nc1cccc(S(=O)(=O)N2CCCC2)c1,4.27
8,N#Cc1nccn1Cc1ccccc1C(F)(F)F,7.07
9,CN(CC(C)(C)O)C(=O)c1ccc2c(=O)[nH]c(S)nc2c1,13.3
10,C=CC(=O)NCC(=O)Nc1ccccn1,11
11,O=C(O)C12CC3CC(CC(Cl)(C3)C1)C2,8.12
12,O=C(CCl)N1CCC(Cc2ccccc2)CC1,31.1
13,CC1CCC2(CC1)NC(=O)N(CC=CCl)C2=O (stereo not drawn),-0.501
14,O=C(C1CCOCC1)N1CCCCC1CCS(=O)(=O)F (stereo not drawn),82.4
15,CCc1ccc(CNC(=O)CCl)s1,4.03
16,C=CC(=O)N1CC(C)C(N2CCOCC2)C1 (stereo not drawn),4.1
17,C=CC(=O)N1CCn2c(cc3ccccc32)C1,24.6
18,CC1CN(CC2OCCO2)CCC1c1ccccc1 (stereo not drawn),8.86
19,CC(C)COc1ccc(B(O)O)cn1,9.39
20,Cl.ClCCn1cncn1,-0.986
21,Cc1nn(C)c(NS(=O)(=O)C=Cc2ccccc2)c1C,11.2
